According to PubChem BioAssay AID1346428 (National Center for Advancing Translational Sciences (NCATS), 2018):
The campaign covered roughly 48,000 compounds. About 1,200 (2.5%) were called active. Inconclusive results (about 2%) are left out.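 Rule for the calls: active = activation of at least 60% and not above a set upper limit (about 1 call in 100 departs from these limits); inconclusive = activation of 40% to 60%, or above that upper limit; inactive = activation under 40%.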 Some of the results follow.

Molecular target: Probable G-protein coupled receptor 32 (Homo sapiens) (UniProt O75388)
Assay: qHTS for Agonists of Human Resolvin D1 Receptor DRV1; note: 0% is about no effect
Conditions: CHO-K1 GPR32 beta-arrestin PathHunter luminescence, 90 min; at 76.9 µM; hits give high values; zero percent set by DMSO-only wells
In short: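 Beta-arrestin recruitment read-out: luminescence from complemented beta-Gal in CHO-K1 GPR32 PathHunter cells, measured 1 h after detection reagent at ambient temperature following 90 min compound exposure at 37 °C; DMSO served as basal (EC0) control.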

Sequence of UniProt O75388 (O75388 whole entry, looked up): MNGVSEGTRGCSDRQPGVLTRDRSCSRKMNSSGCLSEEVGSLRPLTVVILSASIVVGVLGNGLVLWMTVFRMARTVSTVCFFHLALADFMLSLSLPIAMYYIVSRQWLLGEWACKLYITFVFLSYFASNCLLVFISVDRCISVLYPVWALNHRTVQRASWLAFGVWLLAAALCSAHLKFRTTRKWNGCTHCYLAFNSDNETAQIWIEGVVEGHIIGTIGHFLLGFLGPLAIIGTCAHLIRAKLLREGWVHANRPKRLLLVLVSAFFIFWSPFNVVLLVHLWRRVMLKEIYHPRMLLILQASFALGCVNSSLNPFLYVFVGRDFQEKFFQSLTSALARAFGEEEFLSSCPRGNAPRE

activation, inactive:
COc1ccccc1NC(=O)CSC1=Nc2ccccc2C2=NC(CC(=O)NCc3ccc4c(c3)OCO4)C(=O)N12 (centres undefined) 20%
CCOC(=O)c1noc2ncnc(NCc3ccccc3OC)c12 -23.7%
COc1ccccc1N=C1SC(C(=O)Nc2ccccc2OC)CC(=O)N1C (centres undefined) -16.1%
Cc1ccc(CNC(=O)c2sc3nc4n(c(=O)c3c2C)CCCCC4)cc1 -2.72%
COC(=O)c1ccccc1NC(=O)C1CCCN(c2ncnc3onc(C)c23)C1 (centres undefined) 6.6%
CC(C)c1ccc(NC(=O)c2ccc3c(O)c(S(=O)(=O)c4ccccc4)c(=O)[nH]c3c2)cc1 -0.853%
Cc1ccc(C(=O)N(c2ccc(C)cc2)S(=O)(=O)c2ccc(Cl)cc2)cc1 -30.1%
Cc1ccc(-n2nc(C(=O)N(C)Cc3ccccc3)c3c4ccccc4n(C)c3c2=O)cc1 -2.04%
COc1cc(OC)c(N(C)C(=O)c2cc3c(=O)oc4ccccc4c3s2)cc1Cl 19.9%
O=c1c2ccccc2n2c(-c3ccccc3F)nnc2n1CCc1ccccc1 14.9%
Cc1ccc(-n2c(=O)c3c(c4cc(C)ccc4n3C)n(Cc3ccc(F)cc3)c2=O)cc1 -9.75%
Cc1ccc(NC(=O)C(Cc2ccccc2)N2Cc3ccccc3C2=O)cc1Cl (centres undefined) -23.3%
O=C(CNC(=O)c1ccccc1)OCc1cc(=O)n2nc(C3CC3)sc2n1 -4.49%
Cc1ccc(Nc2c(-c3ccc(C)o3)nc3cccc(C)n23)cc1 -21.3%
CCC1CCCCN1C(=O)CCS(=O)(=O)c1cc2c(cc1C)NC(=O)CO2 (centres undefined) 1.87%
O=c1c2oc3ccccc3c2n(Cc2ccc(Cl)cc2)c(=O)n1Cc1ccccc1 -11.1%
CCS(=O)(=O)c1ncc(Cl)c(C(=O)NCc2ccccc2)n1 -12.8%
CC1(C)OC(=O)Nc2ccc(Br)cc21 -4.65%
Cc1cc(C)cc(-n2c(SCC(=O)N3CCCCCC3)nc3c([nH]c4ccccc43)c2=O)c1 -8.14%
COc1ccc(-c2cc(=O)oc3c4c(ccc23)OCN(Cc2ccccc2)C4)cc1 -6.26%
O=C(Nc1cc(F)ccc1F)c1ccc(CN2CC(=O)N3CCCCC3C2=O)cc1 (centres undefined) -10.3%
CC(=O)c1ccc(NC(=O)CSc2nnc(N)s2)cc1 -5.08%
C=C(C)Cn1c(SCC(=O)c2ccccc2)nc2sc3c(c2c1=O)CCCC3 -6.54%
CC(=O)Nc1c(C)nn(-c2ccccc2)c1N1CCC(C(=O)NCc2ccc(F)cc2)CC1 -3.13%
